Data: PubChem BioAssay AID504706 (National Center for Advancing Translational Sciences (NCATS), 2011)
The whole screen tested about 320,000 compounds, of which about 200 (0.062%) were called active. The inconclusive results got no clear call from the source; some entries with a clear call stand among them for comparison. The call rests on the fitted dose curve; in most records, active means well fitted activation curve with a large enough effect; inconclusive means small, poorly fitted or top-dose-only effect; inactive means no such curve, though single readings can be large or run the other way. Potencies of inconclusive entries are left out as doubtful fits.
Potency means the concentration at half of the fitted maximal effect; tags describe the fitted curve by direction and shape.

Assay: qHTS assay for re-activators of p53 using a Luc reporter; further: nearly all actives have a fitted effect of over 45% in size
Conditions: H1299 p53-A138V BP100-luciferase reporter, luminescence, 24 h; series mostly up to 92.2 µM
Outline: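 H1299 (p53-null), stable ts p53-A138V + BP100-Luc; 1000 cells/well, Opti-MEM/10% FBS; cpd 4 pt, 1:5; 24 h, 37 deg C, 5% CO2; detection reagent 10 min RT; luminescence.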
In the case of `CC(NC(=O)CCNS(=O)(=O)c1ccccc1)c1ccccc1` (centres undefined), the Potency is reported as “inactive”.
In the case of `Cc1ccc(NC(=O)c2ccccc2)cc1`, the Potency is reported as inconclusive [activator, partial curve, poor fit].
In the case of `O=C(CSc1nc2cc(Cl)ccc2o1)c1cccs1`, the Potency is reported as inconclusive [activator, full curve].
With `COCCCNC(=O)CCc1nc(-c2ccccc2Cl)no1` the Potency was inconclusive [activator, single point].
With `O=C(NCC1CCN(Cc2ccccc2Cl)CC1)Nc1ccccc1F` the Potency was inconclusive [activator, single point].
In the case of `C=CCCCCCCCCc1nc(SCC(C)=O)n[nH]1`, the Potency is reported as “inactive”.
In the case of `N#Cc1ccc(-c2csc(NC(=O)C3CC3)n2)cc1`, the Potency is reported as inconclusive [activator, partial curve, poor fit].
For `CCCCC(=O)Nc1cccc(-c2cn3ccsc3n2)c1`, the Potency was inconclusive [activator, single point].
In the case of `COc1ccc(/C=N/Nc2nncc3ccccc23)cc1`, the Potency is reported as inconclusive [activator, partial curve, poor fit].
With `CSc1n[nH]c(-c2ccc(C(F)(F)F)cc2)n1` the Potency was “inactive”.
For `OC1CCCN(C(=S)Nc2ccc(SC(F)F)cc2)C1` (centres undefined), the Potency was inconclusive [activator, partial curve, poor fit].
For `COc1cc(C(=O)OCC(=O)NC(N)=O)cc(CN2C(=O)c3ccccc3C2=O)c1OC`, the Potency was “inactive”.
For `COc1ccccc1NS(=O)(=O)c1cccc(C(=O)NCC(c2ccco2)N2CCCC2)c1` (centres undefined), the Potency was inconclusive [activator, single point].
For `COc1ccccc1N=C1NC(=O)/C(=C/c2ccc(N(C)C)cc2)S1`, the Potency was “inactive”.
In the case of `CC(C)C(=O)Nc1cccc(-c2nc3ccccc3o2)c1`, the Potency is reported as “inactive”.
In the case of `c1ccc(-c2cnc(CSc3nnc4ccccn34)o2)cc1`, the Potency is reported as inconclusive [activator, partial curve, poor fit].
With `Cc1ccc(S(=O)(=O)Cc2ccc(C(=O)NCCCN3CCN(C)CC3)o2)cc1` the Potency was inconclusive [activator, single point].
In the case of `CCCCn1nc(C(=O)Nc2cccc(C(=O)NC3CC3)c2)c2ccccc2c1=O`, the Potency is reported as inconclusive [activator, partial curve, poor fit].
For `CCCn1c(=O)c2ccccc2n2c(SCc3nc4ccccc4s3)nnc12`, the Potency was inconclusive [activator, partial curve, poor fit].
In the case of `O=C(COc1ccccc1Br)c1ccc(O)cc1O`, the Potency is reported as inconclusive [activator, single point].
In the case of `O=C(Nc1ccc2c(c1)OCCO2)c1ccncc1`, the Potency is reported as inconclusive [activator, partial curve, poor fit].
For `Cc1ccc(NC(=S)NNC(=O)c2cccc([N+](=O)[O-])c2)cc1Cl`, the Potency was “inactive”.
In the case of `NC(=O)N/N=C/c1ccc(-c2ccc(S(=O)(=O)Nc3ncccn3)cc2)o1`, the Potency is reported as “inactive”.
With `O=C(/C=C/c1ccc(Cl)cc1Cl)OCC(=O)N1CCCC1` the Potency was inconclusive [activator, single point].
With `Cc1ccc(C(C)(C)C)c(SCC(=O)Nc2nnc(C)s2)c1` the Potency was “inactive”.
For `COc1ccccc1OCC(=O)OC/C(O)=C(\C#N)c1nc2ccccc2[nH]1`, the Potency was inconclusive [activator, single point].
In the case of `CC(C)CN(C(=O)COC(=O)CCc1c[nH]c2ccccc12)C1CCS(=O)(=O)C1` (centres undefined), the Potency is reported as inconclusive [activator, single point].
In the case of `CS(=O)(=O)N1CCc2cc(C(=O)OCC(=O)c3ccccc3)ccc21`, the Potency is reported as “inactive”.
With `O=C(N/N=C/c1ccc(N2CCCCC2)o1)c1ccccc1` the Potency was “inactive”.
In the case of `CC(C)c1ccc(NC(=O)NCc2cccnc2)cc1`, the Potency is reported as inconclusive [activator, single point].
In the case of `O=C(N[C@@H](Cc1ccccc1)C(=O)OCc1ccccc1)c1nc[nH]c1C(=O)NC(c1ccccc1)c1ccccc1`, the Potency is reported as “inactive”.
For `COc1ccc2[nH]cc(CCNC(=O)Nc3ccccc3)c2c1`, the Potency was “inactive”.
In the case of `Cc1c(Cl)cccc1NC(=O)NCc1ccccn1`, the Potency is reported as inconclusive [activator, single point].
For `O=C(Nc1ccc(C(=O)O)cc1)/C(=C\c1ccc2c(c1)OCO2)NC(=O)c1ccc(Br)o1`, the Potency was “inactive”.
In the case of `O=C(NCCC1=CCCCC1)NC1CCCCC1`, the Potency is reported as inconclusive [activator, partial curve, poor fit].
In the case of `Cc1nc2ccc(C(=O)c3ccccc3)cc2[nH]1`, the Potency is reported as inconclusive [activator, full curve, poor fit].
In the case of `CCOC(=O)N/N=C/c1c(F)cccc1F`, the Potency is reported as inconclusive [activator, partial curve, poor fit].
For `COc1ccc(CNC(=O)NC2CCCCC2)cc1`, the Potency was inconclusive [activator, partial curve, poor fit].
For `Cc1ccc(C(=O)NC(=S)/C=C2\N(C)c3ccccc3C2(C)C)cc1`, the Potency was inconclusive [activator, full curve].
In the case of `Cc1ccnc2nc(NC(=O)c3ccco3)nn12`, the Potency is reported as inconclusive [activator, partial curve, poor fit].
With `COc1ccc2nc(/N=C\N(C)C)sc2c1` the Potency was inconclusive [activator, single point].
With `Cc1c(C(=O)Nc2cc(F)cc(F)c2)cnn1-c1ccccc1` the Potency was inconclusive [activator, full curve, poor fit].
With `C[C@@H]1CN([C@H](C)CO)C(=O)c2cc(NC(=O)Nc3cccc4ccccc34)ccc2O[C@H]1CN(C)Cc1ccc(C(F)(F)F)cc1` the Potency was inconclusive [activator, partial curve, poor fit].
In the case of `O=C(/C=C/c1ccc(Cl)cc1)NC(=S)Nc1ccc(CN2CCOCC2)cc1`, the Potency is reported as “inactive”.
With `O=C(Nc1cc(N2CCOCC2)ncn1)NC1(C(F)(F)F)Oc2ccccc2O1` the Potency was inconclusive [activator, single point].
For `Cc1cc(C)c2c(NC(N)=S)n[nH]c2n1`, the Potency was “inactive”.
In the case of `NS(=O)(=O)c1cccc(NC(=O)/C=C/c2cccs2)c1`, the Potency is reported as “inactive”.
With `COc1ccccc1/C=C1\S/C(=N/NC(=O)c2cccc(Br)c2)NC1=O` the Potency was inconclusive [activator, single point].
For `O=C(Nc1ncccc1O)c1ccc(Oc2ccccc2)cc1`, the Potency was inconclusive [activator, partial curve, poor fit].
With `Cc1cc(NC(=O)c2sc3ccccc3c2O)no1` the Potency was inconclusive [activator, partial curve, poor fit].
In the case of `Nc1[nH]c(N=NC(=O)c2ccccc2)c2ccccc12`, the Potency is reported as inconclusive [activator, partial curve, poor fit].
In the case of `COc1cc2c(c(OC)c1OC)-c1ccc(NC(=O)c3ccc(F)cc3)c(=O)cc1[C@@H](NC(C)=O)CC2`, the Potency is reported as “inactive”.
With `O=C(Nc1ccc(N2CCCC2)c(Cl)c1)c1ccc(Br)o1` the Potency was inconclusive [activator, full curve, poor fit].
With `Cc1cccc(C(=O)Oc2ccccc2/C=N/Nc2ccc([N+](=O)[O-])cc2)c1` the Potency was inconclusive [activator, single point].
For `CCc1ccccc1NC(=O)CC(=O)Nc1ccccc1CC`, the Potency was inconclusive [activator, single point].
For `N#CC1=C(N)C(C#N)(C#N)[C@H](c2ccncc2)[C@H]2CN(C(=O)OCc3ccccc3)CC=C12`, the Potency was inconclusive [activator, single point].
In the case of `C=CCn1c(C)cc(C(=O)CSc2nnc(Cc3ccccc3)o2)c1C`, the Potency is reported as “inactive”.
With `COc1ccc(C(=O)COC(=O)c2cc(=O)[nH]c3ccccc23)c(OC)c1` the Potency was inconclusive [activator, partial curve, poor fit].
For `Cc1cc(N/N=C2/CCCc3ccccc32)nc2ccccc12`, the Potency was inconclusive [activator, partial curve, poor fit].
With `Cc1ccccc1N(CC(=O)N/N=C/c1ccc(F)cc1)C(=O)c1ccccc1` the Potency was “inactive”.
With `O=C(NNS(=O)(=O)c1ccccc1[N+](=O)[O-])c1cc2ccccc2cc1O` the Potency was inconclusive [activator, partial curve, poor fit].
With `CC(C)(C)c1nnc(N/N=C/c2ccccc2)n(N)c1=O` the Potency was “inactive”.
For `Cc1ccc(C(=O)CSc2nnc(C)s2)cc1`, the Potency was inconclusive [activator, partial curve, poor fit].
With `CC1Sc2ccc(C(=O)OCc3ccccc3Cl)cc2NC1=O` (centres undefined) the Potency was inconclusive [activator, full curve, poor fit].
With `O=C(/C=C/c1ccccc1)c1cc(Br)ccc(=O)c1O` the Potency was inconclusive [activator, partial curve, poor fit].
For `COCCNc1nnc(SC(C)C(=O)Nc2ccc(-c3nc4ccc(C)cc4s3)cc2)s1` (centres undefined), the Potency was inconclusive [activator, partial curve, poor fit].
In the case of `COC(=O)c1ccc2nc(NC(=O)COC(=O)CSc3nc(C)cc(C)n3)sc2c1`, the Potency is reported as inconclusive [activator, partial curve, poor fit].
In the case of `c1ccc(CCNc2ncnc3c2cnn3-c2ccccc2)cc1`, the Potency is reported as inconclusive [activator, full curve, poor fit].
With `COc1ccc(C2Nc3ccccc3NC3=C2C(=O)CC(C)(C)C3)cc1` (centres undefined) the Potency was inconclusive [activator, partial curve, poor fit].
